Laboratory results taken from patent publication US5844078A, “Phenyl peptides, method for preparing same, and pharmaceutical compositions containing said peptides” (priority 1995, dated 1998).
Entries after “also recorded” stand apart in the source; their conditions may differ. Like-named read-outs stand apart in the source and are kept apart here. Part of at least one peptide drawing is inferred or uncertain, most often the ends. Some entries repeat one wording, which the source may state once for all of them. *1 amine or outer side, *2 acyl side, *3 side chain or, on linkers, in order; H or OH if unused. Where a SMILES comes first, the peptide text is derived from it. [ ]: non-standard residue; d: D form. The star is where a group is joined. Fmoc = O=C(OCC1c2ccccc2-c2ccccc21)*; X1 = O=C(C(N[*:1])Sc1ccccc1)[*:2]

How the values were obtained:
HIV-1 protease = biological target: T1, HIV-1 protease (Human immunodeficiency virus type 1 group M subtype B, UniProt P04585); test: Test for HIV1 protease activity: cleavage of the model peptides, products analyzed by reversed-phase HPLC; format: biochemical; conditions: incubated with partially purified HIV-1 protease
T1 construct: incubated with HIV-1 protease partially purified using a standard procedure; made in house

HIV-1 Bru = test: Inhibition in vitro of the replication of the HIV-1 virus on the MT4 cell line (syncytia / reverse transcriptase); format: cell-based; conditions: for IC50: MT4 cells, viral strain HIV-1 Bru, concentration required to inhibit the formation of syncytia by 50% relative to control; for inhibition of HIV viral replication (in words): infected MT4 cell cultures

Structure (SMILES)	proteolytic cleavage by HIV-1 protease (HIV-1 protease)	IC50 (HIV-1 Bru; read-out: IC50) [µM]	IC50 (HIV-1 Bru)	inhibition of HIV viral replication (in words) (HIV-1 Bru)
C=CCOC(=O)C(NC(=O)[C@H](CC(C)C)NC(=O)OC(C)(C)C)Sc1ccccc1 (stereo partly drawn) [Compound 7, BocNH-Leu-(S)PheOCH2 -CH=CH2]	resistant to any proteolytic cleavage	–	–	–
CC[C@H](C)[C@H](N)C(=O)N[C@@H](CCCNC(=N)N)C(=O)N[C@@H](CCCCN)C(=O)N[C@H](C(=O)N[C@@H](CC(C)C)C(=O)NC(Sc1ccccc1)C(=O)N[C@@H](CC(C)C)C(=O)N[C@@H](CC(=O)O)C(=O)NCC(N)=O)[C@@H](C)CC (stereo partly drawn) [Compound 9, Ile-Arg-Lys-Ile-Leu-(S)Phe-Leu-Asp-Gly-NH2] (H-IRKIL[X1]LDG-NH2)	resistant to any proteolytic cleavage	5 ± 2	–	–
CC(C)C[C@H](NC(=O)OC(C)(C)C)C(=O)NC(Sc1ccccc1)C(=O)O (stereo partly drawn) [Compound 2, BocNH-Leu-(S)PheOH]	resistant to any proteolytic cleavage	–	–	–
CC[C@H](C)[C@H](N)C(=O)N[C@@H](CCCNC(=N)N)C(=O)N[C@@H](CCCCN)C(=O)N[C@H](C(=O)N[C@@H](CC(C)C)C(=O)NC(Sc1ccccc1)C(=O)N[C@@H](CC(C)C)C(=O)N[C@@H](CC(=O)O)C(=O)NCC(=O)N[C@H](C(=O)O)[C@@H](C)CC)[C@@H](C)CC (stereo partly drawn) [Compound 11, Ile-Arg-Lys-Ile-Leu-(S)Phe-Leu-Asp-Gly-Ile-OH] (H-IRKIL[X1]LDGI-OH)	resistant to any proteolytic cleavage	10 ± 5	–	–
CC[C@H](C)[C@H](N)C(=O)N[C@@H](CCCNC(=N)N)C(=O)N[C@@H](CCCCN)C(=O)N[C@H](C(=O)N[C@@H](CC(C)C)C(=O)N[C@@H](Cc1ccccc1)C(=O)N[C@@H](CC(C)C)C(=O)N[C@@H](CC(=O)O)C(=O)NCC(=O)N[C@H](C(=O)O)[C@@H](C)CC)[C@@H](C)CC [Compound 1, Ile-Arg-Lys-Ile-Leu-Phe-Leu-Asp-Gly-Ile-OH, reference compound] (H-IRKILFLDGI-OH)	cleaved	–	–	–
CC[C@H](C)[C@H](NC(=O)OCC1c2ccccc2-c2ccccc21)C(=O)N[C@@H](CCCNC(=N)N)C(=O)N[C@@H](CCCCN)C(=O)N[C@H](C(=O)N[C@@H](CC(C)C)C(=O)NC(Sc1ccccc1)C(=O)N[C@@H](CC(C)C)C(=O)N[C@@H](CC(=O)O)C(=O)NCC(N)=O)[C@@H](C)CC (stereo partly drawn) [Compound 8, Fmoc-Ile-Arg-Lys-Ile-Leu-(S)Phe-Leu-Asp-Gly-NH2] (Fmoc-IRKIL[X1]LDG-NH2)	resistant to any proteolytic cleavage	–	inactive/toxic	significant loss of ability to inhibit viral replication; also recorded: inactive
CC[C@H](C)[C@H](NC(=O)CNC(=O)[C@H](CC(=O)O)NC(=O)[C@H](CC(C)C)NC(=O)C(NC(=O)[C@H](CC(C)C)NC(=O)[C@@H](NC(=O)[C@H](CCCCN)NC(=O)[C@H](CCCNC(=N)N)NC(=O)[C@@H](NC(=O)OCC1c2ccccc2-c2ccccc21)[C@@H](C)CC)[C@@H](C)CC)Sc1ccccc1)C(=O)O (stereo partly drawn) [Compound 10, Fmoc-Ile-Arg-Lys-Ile-Leu-(S)Phe-Leu-Asp-Gly-Ile-OH] (Fmoc-IRKIL[X1]LDGI-OH)	resistant to any proteolytic cleavage	100 ± 50	–	significant loss of ability to inhibit viral replication; also recorded: inactive
